# This is one part of the list.
# How the values were obtained:
# Experiment in all cases: glycan array binding signal (z-score within array); higher = stronger binding
# Details in all cases: glycan notation: IUPAC condensed, linker removed
# [1] = molecular target: Neu5Ac(a2-3)Gal(b1-4)[Fuc(a1-3)]GlcNAc(b1-3)Gal(b1-4)GlcNAc
# Method in brief: (§1)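 Glycan array binding is given as a within-array Z-score, which can be read as non-binding when negative. The arrays, 3228 of them, came from the Consortium for Functional Glycomics database and were retained only where the protein sequence was available. Z-scores were averaged across arrays of the same protein sequence at different concentrations or buffers and across linkers.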
# [2] = molecular target: Neu5Ac(a2-3)Gal(b1-4)[Fuc(a1-3)]GlcNAc(b1-3)Gal(b1-4)[Fuc(a1-3)]GlcNAc(b1-3)Gal(b1-4)[Fuc(a1-3)]GlcNAc
# Method in brief: as §1
# [3] = molecular target: Neu5Ac(a2-3)Gal(b1-4)[Fuc(a1-3)]GlcNAc(b1-3)GalNAc
# Method in brief: as §1
# [4] = molecular target: Neu5Ac(a2-3)Gal(b1-4)[Fuc(a1-3)]GlcNAc(b1-6)[Gal(b1-3)]GalNAc
# Method in brief: as §1
# [5] = molecular target: Neu5Ac(a2-3)Gal(b1-4)[Fuc(a1-3)]GlcNAc(b1-6)[Neu5Ac(a2-3)Gal(b1-3)]GalNAc
# Method in brief: as §1
# [6] = molecular target: Neu5Ac(a2-3)Gal(b1-4)[Fuc(a1-3)]GlcNAc6S
# Method in brief: as §1
# [7] = molecular target: Neu5Ac(a2-3)Gal6S(b1-4)GlcNAc
# Method in brief: as §1
# [8] = molecular target: Neu5Ac(a2-3)Gal6S(b1-4)[Fuc(a1-3)]GlcNAc
# Method in brief: as §1
# [9] = molecular target: Neu5Ac(a2-3)GalNAc
# Method in brief: as §1
# [10] = molecular target: Neu5Ac(a2-3)GalNAc(b1-4)GlcNAc
# Method in brief: as §1
# [11] = molecular target: Neu5Ac(a2-3)[GalNAc(b1-4)]Gal(b1-4)Glc
# Method in brief: as §1
# [12] = molecular target: Neu5Ac(a2-3)[GalNAc(b1-4)]Gal(b1-4)GlcNAc
# Method in brief: as §1
# [13] = molecular target: Neu5Ac(a2-3)[GalNAc(b1-4)]Gal(b1-4)GlcNAc(b1-3)GalNAc
# Method in brief: as §1
# [14] = molecular target: Neu5Ac(a2-3)[Neu5Ac(a2-6)]GalNAc
# Method in brief: as §1
# [15] = molecular target: Neu5Ac(a2-6)Gal
# Method in brief: as §1
# [16] = molecular target: Neu5Ac(a2-6)Gal(b1-3)GlcNAc(b1-3)[Gal(b1-4)GlcNAc(b1-6)]Gal(b1-4)Glc
# Method in brief: as §1
# [17] = molecular target: Neu5Ac(a2-6)Gal(b1-4)Glc
# Method in brief: as §1
# [18] = molecular target: Neu5Ac(a2-6)Gal(b1-4)GlcNAc
# Method in brief: as §1
# [19] = molecular target: Neu5Ac(a2-6)Gal(b1-4)GlcNAc(b1-2)Man(a1-3)Man(b1-4)GlcNAc(b1-4)GlcNAc
# Method in brief: as §1
# [20] = molecular target: Neu5Ac(a2-6)Gal(b1-4)GlcNAc(b1-2)Man(a1-3)[Gal(b1-4)GlcNAc(b1-2)Man(a1-6)]Man(b1-4)GlcNAc(b1-4)GlcNAc
# Method in brief: as §1
# [21] = molecular target: Neu5Ac(a2-6)Gal(b1-4)GlcNAc(b1-2)Man(a1-3)[GlcNAc(b1-2)Man(a1-6)]Man(b1-4)GlcNAc(b1-4)GlcNAc
# Method in brief: as §1
# [22] = molecular target: Neu5Ac(a2-6)Gal(b1-4)GlcNAc(b1-2)Man(a1-3)[GlcNAc(b1-2)Man(b1-4)GlcNAc(b1-2)Man(a1-6)]Man(b1-4)GlcNAc(b1-4)GlcNAc
# Method in brief: as §1
# [23] = molecular target: Neu5Ac(a2-6)Gal(b1-4)GlcNAc(b1-2)Man(a1-3)[Man(a1-6)]Man(b1-4)GlcNAc(b1-4)GlcNAc
# Method in brief: as §1
# [24] = molecular target: Neu5Ac(a2-6)Gal(b1-4)GlcNAc(b1-2)Man(a1-3)[Neu5Ac(a2-6)Gal(b1-4)GlcNAc(b1-2)Man(a1-6)]Man(b1-4)GlcNAc(b1-4)GlcNAc
# Method in brief: as §1
# [25] = molecular target: Neu5Ac(a2-6)Gal(b1-4)GlcNAc(b1-2)Man(a1-6)Man(b1-4)GlcNAc(b1-4)GlcNAc
# Method in brief: as §1
# [26] = molecular target: Neu5Ac(a2-6)Gal(b1-4)GlcNAc(b1-2)Man(a1-6)[Gal(b1-4)GlcNAc(b1-2)Man(a1-3)]Man(b1-4)GlcNAc(b1-4)GlcNAc
# Method in brief: as §1
# [27] = molecular target: Neu5Ac(a2-6)Gal(b1-4)GlcNAc(b1-2)Man(a1-6)[GlcNAc(b1-2)Man(a1-3)]Man(b1-4)GlcNAc(b1-4)GlcNAc
# Method in brief: as §1
# [28] = molecular target: Neu5Ac(a2-6)Gal(b1-4)GlcNAc(b1-2)Man(a1-6)[Man(a1-3)]Man(b1-4)GlcNAc(b1-4)GlcNAc
# Method in brief: as §1
# [29] = molecular target: Neu5Ac(a2-6)Gal(b1-4)GlcNAc(b1-3)Gal(b1-3)GlcNAc
# Method in brief: as §1
# [30] = molecular target: Neu5Ac(a2-6)Gal(b1-4)GlcNAc(b1-3)Gal(b1-4)GlcNAc
# Method in brief: as §1
# [31] = molecular target: Neu5Ac(a2-6)Gal(b1-4)GlcNAc(b1-3)Gal(b1-4)GlcNAc(b1-3)Gal(b1-4)GlcNAc
# Method in brief: as §1
# [32] = molecular target: Neu5Ac(a2-6)Gal(b1-4)GlcNAc(b1-3)Gal(b1-4)[Fuc(a1-3)]GlcNAc(b1-3)Gal(b1-4)[Fuc(a1-3)]GlcNAc
# Method in brief: as §1
# [33] = molecular target: Neu5Ac(a2-6)Gal(b1-4)GlcNAc(b1-3)GalNAc
# Method in brief: as §1
# [34] = molecular target: Neu5Ac(a2-6)Gal(b1-4)GlcNAc6S
# Method in brief: as §1
# [35] = molecular target: Neu5Ac(a2-6)GalNAc
# Method in brief: as §1
# [36] = molecular target: Neu5Ac(a2-6)GalNAc(b1-4)GlcNAc
# Method in brief: as §1
# [37] = molecular target: Neu5Ac(a2-6)GlcNAc(b1-4)GlcNAc
# Method in brief: as §1
# [38] = molecular target: Neu5Ac(a2-6)GlcNAc(b1-4)GlcNAc(b1-4)GlcNAc
# Method in brief: as §1
# [39] = molecular target: Neu5Ac(a2-8)Neu5Ac
# Method in brief: as §1
# [40] = molecular target: Neu5Ac(a2-8)Neu5Ac(a2-3)Gal(b1-4)Glc
# Method in brief: as §1
# [41] = molecular target: Neu5Ac(a2-8)Neu5Ac(a2-3)[Gal(b1-3)GalNAc(b1-4)]Gal(b1-4)Glc
# Method in brief: as §1
# [42] = molecular target: Neu5Ac(a2-8)Neu5Ac(a2-3)[GalNAc(b1-4)]Gal(b1-4)Glc
# Method in brief: as §1
# [43] = molecular target: Neu5Ac(a2-8)Neu5Ac(a2-8)Neu5Ac
# Method in brief: as §1
# [44] = molecular target: Neu5Ac(a2-8)Neu5Ac(a2-8)Neu5Ac(a2-3)Gal(b1-4)Glc
# Method in brief: as §1
# [45] = molecular target: Neu5Ac(a2-8)Neu5Ac(a2-8)Neu5Ac(a2-3)[GalNAc(b1-4)]Gal(b1-4)Glc
# Method in brief: as §1
# [46] = molecular target: Neu5Ac(a2-8)Neu5Ac(a2-8)Neu5Ac(a2-8)Neu5Ac(a2-3)[GalNAc(b1-4)]Gal(b1-4)Glc
# Method in brief: as §1
# [47] = molecular target: Neu5Ac(b2-6)Gal(b1-4)GlcNAc
# Method in brief: as §1
# [48] = molecular target: Neu5Ac(b2-6)GalNAc
# Method in brief: as §1
# [49] = molecular target: Neu5Ac9Ac(a2-3)Gal(b1-3)GlcNAc
# Method in brief: as §1
# [50] = molecular target: Neu5Ac9Ac(a2-3)Gal(b1-4)GlcNAc
# Method in brief: as §1
# [51] = molecular target: Neu5Ac9Ac(a2-6)Gal(b1-4)GlcNAc
# Method in brief: as §1
# [52] = molecular target: Neu5Gc(a2-3)Gal(b1-3)GlcNAc
# Method in brief: as §1
# [53] = molecular target: Neu5Gc(a2-3)Gal(b1-3)[Fuc(a1-4)]GlcNAc
# Method in brief: as §1
# [54] = molecular target: Neu5Gc(a2-3)Gal(b1-4)Glc
# Method in brief: as §1
# [55] = molecular target: Neu5Gc(a2-3)Gal(b1-4)GlcNAc
# Method in brief: as §1
# [56] = molecular target: Neu5Gc(a2-3)Gal(b1-4)[Fuc(a1-3)]GlcNAc
# Method in brief: as §1
# [57] = molecular target: Neu5Gc(a2-6)Gal(b1-4)GlcNAc
# Method in brief: as §1
# [58] = molecular target: Neu5Gc(a2-6)GalNAc
# Method in brief: as §1
# [59] = molecular target: Neu5Gc(b2-6)Gal(b1-4)GlcNAc
# Method in brief: as §1
binder,measurement,setting,value
Gal 7 (Canis lupus) (protein) MAGSSNVPHKTSLPEGIRVGTVMRIRGVVPNKAGRFYVNLLCGEAPGSEAALHFNPRLDESTVVFNTLEQGAWGREERGTGIPFQRGQPFDVLLIATDEGFKAVVGDSEYHHFRYRIPPARVRLLEVGGDLQLESVSVF,glycan array binding signal (z-score),[1],-0.205
same,glycan array binding signal (z-score),[2],-0.216
same,glycan array binding signal (z-score),[3],-0.14
same,glycan array binding signal (z-score),[4],-0.202
same,glycan array binding signal (z-score),[5],-0.193
same,glycan array binding signal (z-score),[6],-0.206
same,glycan array binding signal (z-score),[7],-0.198
same,glycan array binding signal (z-score),[8],-0.215
same,glycan array binding signal (z-score),[9],-0.213
same,glycan array binding signal (z-score),[10],-0.213
same,glycan array binding signal (z-score),[11],-0.207
same,glycan array binding signal (z-score),[12],-0.212
same,glycan array binding signal (z-score),[13],-0.198
same,glycan array binding signal (z-score),[14],-0.2
same,glycan array binding signal (z-score),[15],-0.201
same,glycan array binding signal (z-score),[16],-0.18
same,glycan array binding signal (z-score),[17],-0.208
same,glycan array binding signal (z-score),[18],-0.212
same,glycan array binding signal (z-score),[19],-0.208
same,glycan array binding signal (z-score),[20],-0.212
same,glycan array binding signal (z-score),[21],-0.205
same,glycan array binding signal (z-score),[22],-0.17
same,glycan array binding signal (z-score),[23],-0.217
same,glycan array binding signal (z-score),[24],-0.203
same,glycan array binding signal (z-score),[25],-0.202
same,glycan array binding signal (z-score),[26],-0.212
same,glycan array binding signal (z-score),[27],-0.211
same,glycan array binding signal (z-score),[28],-0.212
same,glycan array binding signal (z-score),[29],3.85
same,glycan array binding signal (z-score),[30],1.54
same,glycan array binding signal (z-score),[31],3.5
same,glycan array binding signal (z-score),[32],-0.214
same,glycan array binding signal (z-score),[33],-0.215
same,glycan array binding signal (z-score),[34],-0.217
same,glycan array binding signal (z-score),[35],-0.217
same,glycan array binding signal (z-score),[36],-0.208
same,glycan array binding signal (z-score),[37],-0.208
same,glycan array binding signal (z-score),[38],-0.216
same,glycan array binding signal (z-score),[39],-0.208
same,glycan array binding signal (z-score),[40],-0.207
same,glycan array binding signal (z-score),[41],-0.186
same,glycan array binding signal (z-score),[42],-0.207
same,glycan array binding signal (z-score),[43],-0.211
same,glycan array binding signal (z-score),[44],-0.198
same,glycan array binding signal (z-score),[45],-0.217
same,glycan array binding signal (z-score),[46],-0.198
same,glycan array binding signal (z-score),[47],-0.218
same,glycan array binding signal (z-score),[48],-0.208
same,glycan array binding signal (z-score),[49],-0.203
same,glycan array binding signal (z-score),[50],-0.218
same,glycan array binding signal (z-score),[51],-0.216
same,glycan array binding signal (z-score),[52],-0.218
same,glycan array binding signal (z-score),[53],-0.203
same,glycan array binding signal (z-score),[54],-0.194
same,glycan array binding signal (z-score),[55],-0.217
same,glycan array binding signal (z-score),[56],-0.204
same,glycan array binding signal (z-score),[57],-0.204
same,glycan array binding signal (z-score),[58],-0.211
same,glycan array binding signal (z-score),[59],-0.205
